Measured values as given in patent US12145987B2, “Method for depleting cytotoxic T cells using an anti-LAG-3 antibody composition” (Daiichi Sankyo Company, Limited, priority 2017, dated 2024).

T1: human LAG-3 expressed on 293T-lacZ cells (Homo sapiens, UniProt P18627)
T1 construct: An expression plasmid of the full-length human LAG-3 was introduced into the 293T cells stably expressing β-galactosidase; expressed in transfected cells; host or cells: 293T-lacZ cells (293T stably expressing β-galactosidase), transient transfection
T1 sequence (P18627 23-525): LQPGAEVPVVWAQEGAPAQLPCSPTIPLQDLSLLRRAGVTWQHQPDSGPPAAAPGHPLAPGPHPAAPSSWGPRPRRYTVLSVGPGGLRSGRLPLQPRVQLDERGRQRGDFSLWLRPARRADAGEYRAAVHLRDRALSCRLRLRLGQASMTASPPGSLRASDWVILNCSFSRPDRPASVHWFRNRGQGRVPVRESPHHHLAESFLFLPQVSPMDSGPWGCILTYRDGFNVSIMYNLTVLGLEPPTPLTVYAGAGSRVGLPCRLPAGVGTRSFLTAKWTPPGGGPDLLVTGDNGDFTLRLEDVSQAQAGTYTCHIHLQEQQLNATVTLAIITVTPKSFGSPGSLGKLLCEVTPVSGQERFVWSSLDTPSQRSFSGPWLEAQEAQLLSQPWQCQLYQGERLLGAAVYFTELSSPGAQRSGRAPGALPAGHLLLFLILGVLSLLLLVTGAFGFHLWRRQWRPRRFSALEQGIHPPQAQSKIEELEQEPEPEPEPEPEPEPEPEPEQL

B1: hLA212_H4/L2: defucosylated humanized antibody; heavy chain positions 20 to 470 of SEQ ID No: 30, light chain positions 21 to 234 of SEQ ID No: 34 (antibody)
heavy: EVQLVESGGGLVQPGGSLRLSCAASGFTYRSYVMAWVRQAPGKGLEWVASISTGGGNTYYRDSVKGRFTISRDNAKNTLYLQMDSLRAEDTAVYYCAEDMSNSGYGLFDYWGQGTLVTVSSASTKGPSVFPLAPSSKSTSGGTAALGCLVKDYFPEPVTVSWNSGALTSGVHTFPAVLQSSGLYSLSSVVTVPSSSLGTQTYICNVNHKPSNTKVDKRV[left out - human IgG1 Fc]
light: DIQMTQSPSSLSASVGDRVTITCKAGQNVDNNIAWYQQKPGQSPKLLIYYASNRNTGVPSRFSGSGYGTDFTLTISSLQPEDFATYYCQRISNSPYTFGQGTKVEIKRTVAAPSVFIFPPSDEQLKSGTASVVCLLNNFYPREAKVQWKVDNALQSGNSQESVTEQDSKDSTYSLSSTLTLSKADYEKHKVYACEVTHQGLSSPVTKSFNRGEC
B2: hLA212_H3/L2: humanized antibody; heavy chain positions 20 to 470 of SEQ ID No: 30, light chain positions 21 to 234 of SEQ ID No: 34 (antibody)
heavy: B1 heavy
light: B1 light

Legend:
[1] = target: T1, human LAG-3 expressed on 293T-lacZ cells; assay: Binding activity to 293T-lacZ cells expressing human LAG-3 by flow cytometry; conditions: mean fluorescence intensity
How it was run: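 293T-lacZ cells transiently transfected with human LAG-3 plasmid and cultured 1 day before flow cytometry. Bound antibody detected with anti-human IgG PE conjugate diluted 200-fold in FACS buffer.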

[2] = tested on: 293T-lacZ cells expressing human LAG-3; assay: In vitro ADCC assay, human PBMC effector cells, β-galactosidase release; format: cell-based; conditions: target 293T-lacZ/hLAG-3 cells, effector human PBMCs, percentage of cells lysed
How it was run: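 293T-lacZ cells transiently expressing full-length human LAG-3 were preincubated with antibody at 4° C for 30 min, then cultured overnight at 37° C with human PBMC effectors (Ficoll-separated). β-Galactosidase released into supernatant read by β-Glo luminescence; % lysis = (A−B)/(C−B)×100 versus no-antibody spontaneous and surfactant-lysed maximum release.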

Row | Molecule | binding activity to 293T-lacZ cells expressing human LAG-3 [1] | ADCC activity on cells expressing human LAG-3 [2]
1 | B1 | concentration-dependent binding | concentration-dependent ADCC activity
2 | B2 | concentration-dependent binding activity to the 293T-lacZ cells expressing human LAG-3, comparable to the human chimeric anti-LAG-3 antibody cLA212 | concentration-dependent ADCC activity against the 293T-lacZ cells expressing human LAG-3, almost comparable to the human chimeric anti-LAG-3 antibody cLA212
